# According to the supplement of paper PMC12217912:
# This is one part of the list. Sequences were assembled here from the parent chain. Inactive controls read about 0.05.
# B1: TEV protease; numbered along this chain (parent)
# chain: MGESLFKGPRDYNPISSSICHLTNESDGHTTSLYGIGFGPFIITNKHLFRRNNGTLVVQSLHGVFKVKDTTTLQQHLVDGRDMIIIRMPKDFPPFPQKLKFREPQREERICLVTTNFQTKSMSSMVSDTSCTFPSGDGIFWKHWIQTKDGQCGSPLVSTRDGFIVGIHSASNFTNTNNYFTSVPKNFMELLTNQEAQQWVSGWRLNADSVLWGGHKVFMVKPEEPFQPVKEATQL
# Variants of: B1
# Experiment: raw area under fraction-flipped curve 0-4 h after induction (AUC4h, not background-subtracted), DNA-recorder readout of cleavage of the substrate (dimensionless); higher = more cleavage of the substrate by the protease variant
# Details: temperature: 34 °C; time window: 0-4 h after rhamnose induction
# Experimental: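 In vivo DNA recorder in E. coli TOP10(DE3) ΔrhaA at 34 °C. Each TEVp single-site mutant (parent TEVp 0) is paired with a single-site variant of the 7-mer TEVs (canonical ENLYFQ|S). The substrate sits between flexible linkers in a Bxb1-sfGFP-TEVs-SsrA fusion, so cleavage stabilises Bxb1 and speeds flipping of a recombination array, read by NGS. The value is the raw area under the fraction-flipped curve over 0-4 h after rhamnose induction (AUC4h), with ≥20 reads per time point. It is not background-subtracted; inactive controls average about 0.047.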
# 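Also: Bxb1 expression induced with 0.2% (w/v) L-rhamnose at OD600 near 0.5, cultures sampled hourly, flipped fraction per protease–substrate barcode pair counted by paired-end Illumina sequencing.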
Variant,area with substrate EALYFQS,area with substrate ECLYFQS,area with substrate EFLYFQS,area with substrate EILYFQS,area with substrate EKLYFQS,area with substrate ELLYFQS,area with substrate EMLYFQS,area with substrate EQLYFQS,area with substrate ERLYFQS,area with substrate ESLYFQS,area with substrate EVLYFQS,area with substrate EWLYFQS,area with substrate EYLYFQS,area with substrate EELYFQS,area with substrate EHLYFQS,area with substrate EGLYFQS,area with substrate ETLYFQS,area with substrate EDLYFQS,area with substrate EPLYFQS
S4F,0.165,0.104,0.139,0.13,0.209,0.142,0.147,0.162,0.153,0.15,0.128,0.157,0.158,,,,,,
K7N,0.115,0.0953,,,,0.0465,,0.117,0.103,0.107,0.145,,,0.131,0.104,,,,
Y12F,0.108,0.105,,0.0888,0.132,,0.106,0.118,0.101,0.109,,0.106,,0.125,0.089,0.109,0.0972,,
P14Q,0.114,0.0777,,0.105,0.137,0.0804,0.117,,0.0917,0.122,0.0802,0.139,0.098,,0.0887,0.115,0.137,0.157,
P14V,0.0932,0.0822,0.089,0.1,0.0997,0.0645,0.0916,0.104,0.0862,0.0953,0.0902,0.104,0.0728,0.11,0.0924,0.0994,0.101,,0.107
I15V,0.13,0.101,,0.09,0.112,0.0828,0.118,0.133,0.104,0.112,0.0974,0.0845,0.108,0.11,,,,0.121,0.122
S16P,0.122,0.075,0.118,0.0827,0.135,0.106,0.111,0.115,0.0942,0.0951,0.102,,,0.12,,0.0888,0.117,,0.0848
S17Y,0.119,0.116,0.0829,0.101,0.12,,0.114,0.117,,0.103,0.0825,0.0813,0.113,0.106,,0.105,0.0971,0.114,0.113
C20K,0.0577,0.0698,0.0578,0.0339,0.0364,0.0502,,,0.0573,0.0455,,0.0394,0.0445,0.0488,,0.029,,0.0513,0.0504
C20Y,0.0781,0.0637,0.0629,0.0524,,0.0576,0.0632,0.072,0.0422,0.0624,0.0539,,0.0601,0.0807,,,0.0709,,
L22F,0.0759,0.0617,,0.0544,0.0546,0.0748,0.073,0.0804,0.0733,0.065,0.0173,0.0583,0.0819,0.069,0.0814,0.0564,,,0.0794
S26M,0.0756,0.102,,0.0866,0.076,0.0613,0.0925,0.0934,0.0767,0.0831,0.0714,0.0772,,0.0918,,,,0.0924,0.0961
